Data published in the supplement of paper PMC11417369.
The list shows a part of the results.

system: PfSIP2 AP2 domain 1 (GST-tagged); experiment: gcPBM binding intensity (ln(normalized median fluorescence intensity)); higher = stronger DNA binding
In short: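 Binding intensity is the highest Masliner-normalised natural-log median intensity over replicate spots in either probe orientation. To obtain it, GST-tagged P. falciparum DNA-binding domains made in E. coli were incubated for 1 h on an Agilent 4 × 180k array of primer-extended double-stranded 36-bp intergenic genomic probes plus negative controls. Detection used Alexa488 anti-GST antibody with scanning at 488 nm.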

| Sequence | gcPBM binding intensity (ln) |
| --- | --- |
| AATGAATATAGTACTGAATGTAATTTAAGGTTTTCC [CACACA_negctrl_site1548] | 6.77 |
| TATAATGGATGCTAGCTGCACTAATAAGCAAAAATA | 8.3 |
| GATGATATATATTAGCGTACATGTATATATACCATT [XGTACX_site6404] | 7.06 |
| TAAATGAGAAGGACTGCACACTAAAATGGAAGGAGA [CACACA_site8449] | 7.6 |
| AAAATTTCAAATAACACACACTAATATATATCTGTA [CACACA_site4904] | 6.98 |
| GTGGACGAAATAGTTGTAAATTTATGTGCAAACCTC [XGTACX_negctrl_site564] | 7.4 |
| ATATATATATCATATTGTACATACTTGTATTTATAT [XGTACX_site2432] | 8.72 |
| TCCTTACCTATTAAAGCATGCTCGAATATATATTTT [TGCATGCA_site53] | 7.38 |
| TATATTAAATATTACACACATACATTTAGTGTCAAA [CACACA_site1990] | 7.01 |
| TGGGAGCACAGACACACACACACACCGATATATATA [CACACA_site8001] | 7.3 |
| AACAAAATAAATGTATGTACATATATATATATATAT [XGTACX_site7974] | 9.68 |
| ACTTATAAAATAACATGTACAAATATTTATTATATA [XGTACX_site133] | 7.25 |
| AAAAAAAAAAGGTGTACATGCAAAATAAATTCTTAA [TGCATGCA_site556] | 6.95 |
| TATGGTAACATATGCTGTACAATATAATATGTTTAA [XGTACX_site1601] | 6.94 |
| TAAACATAAATATACACACAAACATATATGTATTTT [CACACA_site1214] | 6.94 |
| AAATTATAAATACCTACACACTTATCAAAATAAATT [CACACA_site5280] | 6.86 |
| AAAAAAAAAAAACACACACACACACCGACAAAATAT [CACACA_site8411] | 7.28 |
| AATATTTTTTTATAAACACACATATATATAAATATA [CACACA_site3524] | 6.86 |
| TAATAATTTATATATGCATGTCAAAATAATATTAAA [TGCATGCA_site12] | 7.06 |

| Sequence | gcPBM binding intensity (ln) |
| --- | --- |
| TATATAAATATAATATGTACATATAATATGTATATA [XGTACX_site8120] | 6.97 |
| TATATATTTTTATGTGTGCACTGTTTCATAAAAGAA | 10.9 |
| TTATATGAAAAAATATGTACGTATAATGAGAAATAT [XGTACX_site8987] | 7.5 |
| AAATAGATAAACTAAACACACAAAAAAAAAAAAAAT [CACACA_site1179] | 6.69 |
| AAAATAACGAGTCAAACACACATATTTATATTTATA [CACACA_site7050] | 6.83 |
| TAATATAACTACATAACACACGAAAATATATGAATC [CACACA_site3628] | 7.23 |
| GTTATAAATGCATATACACACATACGTACATACATA [CACACA_site7655] | 7.4 |
| TCATTAATCAGGTATGCATGCATAACTATTAAAAAT [TGCATGCA_site90] | 6.83 |
| TCTTTTTTTTTTATTTGTACTTATTTTTTTCAAAAA [XGTACX_site3403] | 7.36 |
| AATAATAATATATGTAGTACACATTTCCATTATGTT [XGTACX_site3708] | 7.07 |
| AAAAAAAAAAAAAAAACACACATTTCTTTTTCATAT [CACACA_site11] | 7.64 |
| TTAATTATATATAAAAGTACTTATTTTTCCATATAA [XGTACX_site3033] | 6.95 |
| TAATAGGAAATTATAGGTACACATACAAATAAATAA [XGTACX_site3587] | 6.9 |
| AGAAAAAATAAAAATAGTACTCAAAAAATTATGAAT [XGTACX_site4908] | 6.96 |
| ACATAAATAATAAAAACACACATATGTACAGATATA [CACACA_site5112] | 7.12 |
| ATGTAGATATATATATGTACTAATTAGTAGTTTACG [XGTACX_site6275] | 7.24 |
| AATGGTACATGATACACACACGCACATATATATATT [CACACA_site3425] | 6.9 |
| AGAAAAAAAAAACACACACACACACCCTCAATATAA [CACACA_site39] | 6.94 |
| ATTTATATATTGCCCACACACATGTGATTATTTATA [CACACA_site1714] | 7.4 |

| Sequence | gcPBM binding intensity (ln) |
| --- | --- |
| ATATTAAAAAGAAGTGTGCGCAAAACATTAACTTGA | 7.32 |
| TAAATAAACCTGACTTGTACATGTAAAATAAATATA [XGTACX_site1667] | 6.99 |
| AATGGATGGTCCAAATGTACATATATATATATATAT [XGTACX_site4800] | 9.35 |
| TATGCACCCAGACACACACACACAACTAAAAAATAA [CACACA_site2567] | 10.7 |
| TTTGTAGATTTTGTAACACACACATATATATACATA [CACACA_site8757] | 6.97 |
| AAAATATAATATATTGCACACAAAAAGTGAATTATT [CACACA_site8489] | 6.95 |
| TACCATTATTTTAAGTGTACATACTAATTTATATAT [XGTACX_site6548] | 7.21 |
| TCTTTCTATTTATAATGTACTCAAAATTATTCTATA [XGTACX_site4867] | 7.13 |
| AAATTGTGTGAAATATATTAATATTATTATTATTAT [TGCATGCA_negctrl_site189] | 6.98 |
| TTTTACCACTAAAAATGTACAAAAAAAAAAAAAAAA [XGTACX_site4226] | 6.91 |
| CCTTGCATTTATTATACACACACAAAAAAATATATA [CACACA_site7964] | 7.8 |
| TTGCAAATATATGGTTGTACTCAAAAAAAAAAAAAA [XGTACX_site6975] | 7.03 |
| CAAAAATAACGAGTCAAACACACATATATATATATA [CACACA_site2038] | 9.22 |
| AAAGGGATAACACCAAAAAAAATAAAAATAAAAATA [GTGCAC_negctrl_site680] | 7.11 |
| TCAAGAATTTTAAAGAGTACATAAAACAATAATATA [XGTACX_site3923] | 6.91 |
| ATGCGTATACTAAGAACACACAAGTTACTTGGTGTT [CACACA_site1625] | 6.71 |
| ATTAATGATTTTTGTTGTACATTATTAATTTACATT [XGTACX_site544] | 7 |
| TATTTTATATTTCATTTGTTATTTTTCTTGGTTCTA [CACACA_negctrl_site33] | 6.88 |
| CATACATACATACATACACACATACATATGTATTTA [CACACA_site5384] | 7.98 |
